In US7138231B2 (priority 2000, dated 2006):

Assays:
[1] = system: HIV-1 patient viruses with protease V82A/F/S/T; format: cell-based; settings: for % with IDV FC > 2.5 / % with SQV FC > 2.5: V82A/F/S/T
[2] = system: HIV-1 patient viruses with protease V82 mutations; assay: Phenotypic susceptibility profiles of 270 patient virus samples with a mutation at position 82 (not 30 or 50); format: cell-based; settings: for wt % > 2.5 / wt % > 10 / Percent of viruses with indicated primary mutation(s) with reduced susceptibility (fold change in IC50 > 2.5) / Percent of viruses with indicated primary mutation(s) with reduced susceptibility (fold change in IC50 > 10): V82 mutations; for mt % > 2.5 / mt % > 10: listed as 82: all samples with V82 mutations
[3] = system: HIV-1 patient viruses with protease V82A/F/S/T and L90M
[4] = in vivo, cited from earlier work
[5] = number of secondary mutations 1
[6] = number of secondary mutations 2
[7] = number of secondary mutations 3
[8] = number of secondary mutations 4
[9] = number of secondary mutations 5
[10] = number of secondary mutations 6
[11] = number of secondary mutations 7

CC(C)CN(C[C@@H](O)[C@H](Cc1ccccc1)NC(=O)O[C@H]1CCOC1)S(=O)(=O)c1ccc(N)cc1 [amprenavir]
Percent of viruses with indicated primary mutation(s) which are drug sensitive (fold change in IC50 < 2.5) ([1]; {}): 53.3% | wt % > 2.5 ([2]; Amprenavir FC>2.5, position 10 wild type): 34.8% | wt % > 2.5 ([2]; Amprenavir FC>2.5, position 23 wild type): 58.5% | wt % > 2.5 ([2]; Amprenavir FC>2.5, position 32 wild type): 57.7% | wt % > 2.5 ([2]; Amprenavir FC>2.5, position 33 wild type): 56.5% | wt % > 2.5 ([2]; Amprenavir FC>2.5, position 37 wild type): 55.6% | wt % > 2.5 ([2]; Amprenavir FC>2.5, position 46 wild type): 52.2% | wt % > 2.5 ([2]; Amprenavir FC>2.5, position 53 wild type): 57.0% | wt % > 2.5 ([2]; Amprenavir FC>2.5, position 54 wild type): 51.2% | wt % > 2.5 ([2]; Amprenavir FC>2.5, position 61 wild type): 61.8% | wt % > 2.5 ([2]; Amprenavir FC>2.5, position 71 wild type): 46.5% | wt % > 2.5 ([2]; Amprenavir FC>2.5, position 84 wild type): 55.8% | wt % > 2.5 ([2]; Amprenavir FC>2.5, position 90 wild type): 49.6% | mt % > 2.5 ([2]; Amprenavir FC>2.5): 60.0% | wt % > 10 ([2]; Amprenavir FC>10, position 10 wild type): 0.0% | wt % > 10 ([2]; Amprenavir FC>10, position 11 wild type): 9.5% | wt % > 10 ([2]; Amprenavir FC>10, position 32 wild type): 8.9% | wt % > 10 ([2]; Amprenavir FC>10, position 33 wild type): 6.5% | wt % > 10 ([2]; Amprenavir FC>10, position 46 wild type): 4.4% | wt % > 10 ([2]; Amprenavir FC>10, position 53 wild type): 8.9% | wt % > 10 ([2]; Amprenavir FC>10, position 60 wild type): 8.8% | wt % > 10 ([2]; Amprenavir FC>10, position 71 wild type): 4.7% | wt % > 10 ([2]; Amprenavir FC>10, position 84 wild type): 6.4% | wt % > 10 ([2]; Amprenavir FC>10, position 90 wild type): 5.9% | mt % > 10 ([2]; Amprenavir FC>10): 10.4% | Percent of viruses with indicated primary mutation(s) with reduced susceptibility (fold change in IC50 > 2.5) [2]: 60.0% | Percent of viruses with indicated primary mutation(s) with reduced susceptibility (fold change in IC50 > 10) [2]: 10.4% | Percent of viruses with indicated primary mutation(s) which are drug sensitive (fold change in IC50 < 2.5) [3]: 33.3%

CC(C)(C)NC(=O)[C@@H]1CN(Cc2cccnc2)CCN1C[C@@H](O)C[C@@H](Cc1ccccc1)C(=O)N[C@H]1c2ccccc2C[C@H]1O [indinavir]
% FC > 2.5 ([1]; IDV, V82A/F/S/T + mutation at position 10): 83% | % FC > 2.5 ([1]; IDV, V82A/F/S/T + mutation at position 24): 100% | % FC > 2.5 ([1]; IDV, V82A/F/S/T + mutation at position 24, listed as IDV): 100% | % FC > 2.5 ([1]; IDV, V82A/F/S/T + mutation at position 46): 89% | % FC > 2.5 ([1]; IDV, V82A/F/S/T + mutation at position 54): 95% | % FC > 2.5 ([1]; IDV, V82A/F/S/T + mutation at position 63): 79% | % FC > 2.5 ([1]; IDV, V82A/F/S/T + mutation at position 71): 100% | % FC > 2.5 ([1]; IDV, V82A/F/S/T + mutation at position 71, listed as IDV): 100% | % FC > 2.5 ([1]; IDV, listed as 82: all virus with V82A/F/S/T and no other primary mutations): 77% | % with IDV FC > 2.5 [1, 5]: 77% | % with IDV FC > 2.5 [1, 6]: 82% | % with IDV FC > 2.5 [1, 7]: 88% | % with IDV FC > 2.5 [1, 8]: 95% | % with IDV FC > 2.5 [1, 9]: 96% | % with IDV FC > 2.5 [1, 10]: 100% | % with IDV FC > 2.5 [1, 11]: 100% | wt % > 2.5 ([2]; Indinavir FC>2.5, position 10 wild type): 80.4% | wt % > 2.5 ([2]; Indinavir FC>2.5, position 13 wild type): 95.7% | wt % > 2.5 ([2]; Indinavir FC>2.5, position 20 wild type): 89.6% | wt % > 2.5 ([2]; Indinavir FC>2.5, position 37 wild type): 95.1% | wt % > 2.5 ([2]; Indinavir FC>2.5, position 45 wild type): 93.8% | wt % > 2.5 ([2]; Indinavir FC>2.5, position 46 wild type): 87.6% | wt % > 2.5 ([2]; Indinavir FC>2.5, position 54 wild type): 80.5% | wt % > 2.5 ([2]; Indinavir FC>2.5, position 64 wild type): 93.9% | wt % > 2.5 ([2]; Indinavir FC>2.5, position 71 wild type): 81.4% | wt % > 2.5 ([2]; Indinavir FC>2.5, position 72 wild type): 90.7% | wt % > 2.5 ([2]; Indinavir FC>2.5, position 84 wild type): 91.0% | wt % > 2.5 ([2]; Indinavir FC>2.5, position 93 wild type): 89.1% | mt % > 2.5 ([2]; Indinavir FC>2.5): 92.2% | wt % > 10 ([2]; Indinavir FC>10, position 10 wild type): 30.4% | wt % > 10 ([2]; Indinavir FC>10, position 13 wild type): 62.2% | wt % > 10 ([2]; Indinavir FC>10, position 20 wild type): 53.4% | wt % > 10 ([2]; Indinavir FC>10, position 35 wild type): 53.6% | wt % > 10 ([2]; Indinavir FC>10, position 36 wild type): 54.4% | wt % > 10 ([2]; Indinavir FC>10, position 43 wild type): 57.6% | wt % > 10 ([2]; Indinavir FC>10, position 48 wild type): 57.4% | wt % > 10 ([2]; Indinavir FC>10, position 53 wild type): 57.8% | wt % > 10 ([2]; Indinavir FC>10, position 54 wild type): 34.1% | wt % > 10 ([2]; Indinavir FC>10, position 55 wild type): 58.0% | wt % > 10 ([2]; Indinavir FC>10, position 71 wild type): 37.2% | wt % > 10 ([2]; Indinavir FC>10, position 72 wild type): 56.5% | wt % > 10 ([2]; Indinavir FC>10, position 73 wild type): 57.3% | wt % > 10 ([2]; Indinavir FC>10, position 90 wild type): 45.9% | mt % > 10 ([2]; Indinavir FC>10): 60.0% | oral bioavailability [4]: enhanced

Cc1c(O)cccc1C(=O)N[C@@H](CSc1ccccc1)[C@H](O)CN1C[C@H]2CCCC[C@H]2C[C@H]1C(=O)NC(C)(C)C [nelfinavir]
oral bioavailability [4]: good oral bioavailability | drug levels in tissues [4]: high levels of the drug in mesenteric lymph nodes and the spleen

CC(C)c1nc(CN(C)C(=O)N[C@H](C(=O)N[C@@H](Cc2ccccc2)C[C@H](O)[C@H](Cc2ccccc2)NC(=O)OCc2cncs2)C(C)C)cs1 [ritonavir]
Percent of viruses with indicated primary mutation(s) with reduced susceptibility (fold change in IC50 > 2.5) [2]: 97.8% | Percent of viruses with indicated primary mutation(s) with reduced susceptibility (fold change in IC50 > 10) [2]: 89.3% | Percent of viruses with indicated primary mutation(s) which are drug sensitive (fold change in IC50 < 2.5) [3]: 3.0%

CC(C)(C)NC(=O)[C@@H]1C[C@@H]2CCCC[C@@H]2CN1C[C@@H](O)[C@H](Cc1ccccc1)NC(=O)[C@H](CC(N)=O)NC(=O)c1ccc2ccccc2n1 [saquinavir]
% FC > 2.5 ([1]; SQV, V82A/F/S/T + mutation at position 10): 40% | % FC > 2.5 ([1]; SQV, V82A/F/S/T + mutation at position 20): 80% | % FC > 2.5 ([1]; SQV, V82A/F/S/T + mutation at position 20, listed as SQV): 80% | % FC > 2.5 ([1]; SQV, V82A/F/S/T + mutation at position 24): 65% | % FC > 2.5 ([1]; SQV, V82A/F/S/T + mutation at position 36): 73% | % FC > 2.5 ([1]; SQV, V82A/F/S/T + mutation at position 36, listed as SQV): 73% | % FC > 2.5 ([1]; SQV, V82A/F/S/T + mutation at position 54): 47% | % FC > 2.5 ([1]; SQV, V82A/F/S/T + mutation at position 71): 52% | % FC > 2.5 ([1]; SQV, listed as 82: all virus with V82A/F/S/T): 27% | % with SQV FC > 2.5 [1, 5]: 27% | % with SQV FC > 2.5 [1, 6]: 30% | % with SQV FC > 2.5 [1, 7]: 39% | % with SQV FC > 2.5 [1, 8]: 50% | % with SQV FC > 2.5 [1, 9]: 60% | % with SQV FC > 2.5 [1, 10]: 76% | % with SQV FC > 2.5 [1, 11]: 60% | wt % > 2.5 ([2]; Saquinavir FC>2.5, position 10 wild type): 23.9% | wt % > 2.5 ([2]; Saquinavir FC>2.5, position 20 wild type): 53.1% | wt % > 2.5 ([2]; Saquinavir FC>2.5, position 23 wild type): 60.5% | wt % > 2.5 ([2]; Saquinavir FC>2.5, position 32 wild type): 64.1% | wt % > 2.5 ([2]; Saquinavir FC>2.5, position 33 wild type): 59.2% | wt % > 2.5 ([2]; Saquinavir FC>2.5, position 35 wild type): 55.6% | wt % > 2.5 ([2]; Saquinavir FC>2.5, position 36 wild type): 53.5% | wt % > 2.5 ([2]; Saquinavir FC>2.5, position 39 wild type): 62.6% | wt % > 2.5 ([2]; Saquinavir FC>2.5, position 41 wild type): 56.3% | wt % > 2.5 ([2]; Saquinavir FC>2.5, position 43 wild type): 59.1% | wt % > 2.5 ([2]; Saquinavir FC>2.5, position 48 wild type): 56.4% | wt % > 2.5 ([2]; Saquinavir FC>2.5, position 53 wild type): 58.1% | wt % > 2.5 ([2]; Saquinavir FC>2.5, position 54 wild type): 32.9% | wt % > 2.5 ([2]; Saquinavir FC>2.5, position 71 wild type): 34.9% | wt % > 2.5 ([2]; Saquinavir FC>2.5, position 73 wild type): 59.1% | wt % > 2.5 ([2]; Saquinavir FC>2.5, position 74 wild type): 59.4% | wt % > 2.5 ([2]; Saquinavir FC>2.5, position 84 wild type): 55.8% | wt % > 2.5 ([2]; Saquinavir FC>2.5, position 90 wild type): 41.0% | mt % > 2.5 ([2]; Saquinavir FC>2.5): 61.7% | wt % > 10 ([2]; Saquinavir FC>10, position 10 wild type): 13.0% | wt % > 10 ([2]; Saquinavir FC>10, position 20 wild type): 21.4% | wt % > 10 ([2]; Saquinavir FC>10, position 23 wild type): 29.1% | wt % > 10 ([2]; Saquinavir FC>10, position 32 wild type): 33.1% | wt % > 10 ([2]; Saquinavir FC>10, position 33 wild type): 29.4% | wt % > 10 ([2]; Saquinavir FC>10, position 35 wild type): 24.7% | wt % > 10 ([2]; Saquinavir FC>10, position 36 wild type): 21.8% | wt % > 10 ([2]; Saquinavir FC>10, position 41 wild type): 26.8% | wt % > 10 ([2]; Saquinavir FC>10, position 46 wild type): 38.1% | wt % > 10 ([2]; Saquinavir FC>10, position 48 wild type): 23.5% | wt % > 10 ([2]; Saquinavir FC>10, position 53 wild type): 25.8% | wt % > 10 ([2]; Saquinavir FC>10, position 54 wild type): 13.4% | wt % > 10 ([2]; Saquinavir FC>10, position 60 wild type): 28.9% | wt % > 10 ([2]; Saquinavir FC>10, position 62 wild type): 23.3% | wt % > 10 ([2]; Saquinavir FC>10, position 71 wild type): 17.4% | wt % > 10 ([2]; Saquinavir FC>10, position 74 wild type): 28.7% | wt % > 10 ([2]; Saquinavir FC>10, position 84 wild type): 24.9% | wt % > 10 ([2]; Saquinavir FC>10, position 90 wild type): 19.4% | mt % > 10 ([2]; Saquinavir FC>10): 31.2%

Read-outs that look alike come from different tables or passages of the source.
